The values that follow come from the RNAGym collection of RNA variant scans (doi:10.1093/nar/gkz1192).

B1: CPEB3 Ribozyme (parent)
chain: UAACAGGGGGCCACAGCAGAAGCGUUCACGUCGCAGCCCCUGUCAGAUUCUGGUGAAUCUGCGAAUUCUGCUGUAUAUCUC

Read counts are not given, so values of variants with three or more changes are uncertain.

Variants of B1 are the subject of the series. Briefly: self-cleavage, relative activity (ratio to wild type); higher = more cleavage; in vitro, sequencing. A digest of the protocol: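 CPEB3 self-cleaving ribozyme mutant libraries were made by rounds of error-prone PCR, barcoded, and transcribed in vitro with T7 RNA polymerase for 5 hours at 37°C. Cleavage occurred during transcription and a 15 min DNase I step before EDTA stop. RNAs were reverse transcribed with template switching and Illumina-sequenced, with DNA sequencing mapping barcodes to variants. Relative activity is the variant's cleaved/total read fraction divided by wild type's (minimum 5 reads), averaged across three batches.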
On to UAACAGGGGGCCUCAGCAGAAGCGCUCACGUCGCAGCCCCUGUCAGAUUCCGGUGAAUCUGCGAAUCCUACUGUAUAUCUC [A13U U25C U51C U67C G70A], for which the self-cleavage turned out to be 0.08.

UAACAGGGGGCCUCAGCAGAAGCGUCCACGUCGCAGCCCCAGUCAGAUUCUGGCGUAUCUGCGAAUUCUGCUGUAUAUCUC [A13U U26C U41A U54C A56U]: the self-cleavage came to 0.15.

For UAACAGGGGGCCUCAGCAGAAGCGUACACGUCGCAGCCCCUGUCAGAUUCUGGUGAAUCUGCGAAUUCAGCUGUAUAUCUC [A13U U26A U69A], the self-cleavage is 0.51.

UAACAGGGGGCCUCAGCAGAAGCGUCCACGUCGCAGCCCCUGUCAGACUCUGGUGAAUCUGCGAAUUCUGCUGUAUAUCUC [A13U U26C U48C]: the self-cleavage turned out to be 0.51.

As to UAACAGGGGGCCUCAGCAGAAGCGUCCACGCCGCAGCCCCUGUCAGAUUCUGGUGAAUCUGCGAAUUCUGCUGUAUAUCUC [A13U U26C U31C], the self-cleavage turned out to be 0.18.

As to UAACAGGGGGCCUCAGCAGAAGCGUCCACGUCGCAGCCCCUGUCAGAUUCUGGUGAAUCUGCGAAUUCUGCUGUAUCACUC [A13U U26C A77C U78A], the self-cleavage was found to be 0.7.

For the variant UAACAGGGGGCCUCAGCAGAAGCGUACCCGUCGCAGCCCCUGUCAGAUUCUGGUGAAUCUGCGAAUUCUGCUGUAUAUCAC [A13U U26A A28C U80A], the self-cleavage was 0.51.

Take UAACAGGGGGCCUCAGCAGAAGCGUCCACGUCGCUGCCCCUGUCAGAUUCAGGUGAAUCUGCGAAUUCUGCUGUAUAUCUC [A13U U26C A35U U51A]: the self-cleavage turned out to be 0.08.

Turning to UAACAGGGGGCCUCAGCAGAAGCGUUCACGACGCAGCCCCAGUCUGAUUCUGGUGAGUCUGCGAAUUCUGCAGUAUACCUC [A13U U31A U41A A45U A57G U72A U78C], the self-cleavage came to 0.3.

In the case of UAACAGGGGGCCUCAGCAGAAGCGUACACGUUGCAGCCCCUGUCAGAUUCUGGUGACUCUGCGAGUUCUGCUGUAUAUCCC [A13U U26A C32U A57C A65G U80C], the self-cleavage came to 0.08.

Regarding UAACAGGGGGCCUCAGCAGAAGCGUUCACGACGCAGCCCCUGUCAGAUUCUGGUGAAUCUGCGAUCUCUGCUGUAUAUCUC [A13U U31A A65U U66C], the self-cleavage was 0.09.

With UAACAGGGGGCCUCAGCAGAAGCGUCCACGUCGCAGCCCCCUUCAGAUUCUGGUGAAUCUGCGAAUUCUGCUGUAUAUCUC [A13U U26C U41C G42U], the self-cleavage was determined as 0.22.

Turning to UAACAGGGGGCCUCAGCAGAAGCGUACACGUCGCAGCCCCCGUCAGAUUCUGGUGAAUCUGCGAGUUCUGCAGUAUAUCUC [A13U U26A U41C A65G U72A], the self-cleavage came out at 0.25.

Take UAACAGGGGGCCUCAGCAGAAGCGUCCACGUCGCAGCCCCUGUCUGACUCUGGUGAAUCUGCGAAUUCUGCUGUAUAUCUC [A13U U26C A45U U48C]: the self-cleavage came to 0.08.

For UAACAGGGGGCCUCAGCAGAAGCGUACACGUCGCAGCCCCUGUCAGAUUCUGGUGAAUCUGCGGAUUCUGCUGUAUAUCUC [A13U U26A A64G], the self-cleavage came out at 1.01.

For UAACAGGGGGCCUCAGCAGAAGCGUACACGUCGCAGCCCCUGUCAGAUUCUGGUGAGUCUGCGAAUCCUGCUGUAUAUCUC [A13U U26A A57G U67C], the self-cleavage came to 0.3.

For UAACAGGGGGCCUCAGCAGAAGCGGUCACGUCGCAGCCCCUGUCAGAUUCUGGUGAUUCUGCGAAUUCUGCCGUAUAUCCC [A13U U25G A57U U72C U80C], the self-cleavage was 0.08.

Regarding UAACAGGGGGCCUCAGCAGAAGCGUCCACGUCGCAGCCCCUGUCAGAUUCUGGUGAAUCUGCGAAUUCUGCUGUACAUCUC [A13U U26C U76C], the self-cleavage came to 0.62.

In the case of UAACAGGGGGCCUCAGCAGAAGCGGUCACGUCGCAGCCCCUGUCAGAUUCUGGUGAAUCCGCGAAUUCUGCCGUAUAUCCC [A13U U25G U60C U72C U80C], the self-cleavage amounted to 0.1.

Regarding UAACAGGGGGCCUCAGCAGAAGCGUCUACGUCGCAGCCCCUGUCUGAUUCUGGUGAAUUUGCGAAUACUGCUGUAUAUCAC [A13U U26C C27U A45U C59U U67A U80A], the self-cleavage stood at 0.04.

On to UAACAGGGGGCCUCAGCAGAAGCGUCCACGUCGCAGCCCCUGUCAGAUUCUGGUGAAUCAGCGAAUUCUGCCGUAUAUAUC [A13U U26C U60A U72C C79A], for which the self-cleavage was 0.06.

On to UAACAGGGGGCCUCAGCAGAAGCGUUCACGACGCAGCCCCUGUCAGAUUCUGGUGGAUCUGCGAAUUCUGCUGUAUAUCUC [A13U U31A A56G], for which the self-cleavage worked out at 0.2.

With UAACAGGGGGCCUCAGCAGAAGCGUCUACGUCGCAGCCCCUGUCGGAUUCUGGUGAAUCUGCGAACUCUGCUGUAUGUCUC [A13U U26C C27U A45G U66C A77G], the self-cleavage is 0.02.

For the variant UAACAGGGGGCCUCAGCAGAAGCGCUCACGUCGCAGCCCCCGUCAGAUUCUGGUGAAUCUGUGAAUUCUGCUGUAUACCUC [A13U U25C U41C C62U U78C], the self-cleavage is 0.03.

Take UAACAGGGGGCCUCAGCAGAAGCGUUCACGACGCAGUCCCUGUCAGAUUCUGGUGAAUCUGCGAAUUCUGCUGUAUAUCUC [A13U U31A C37U]: the self-cleavage turned out to be 0.47.

As for UAACAGGGGGCCUCAGCAGAAGCGUACACGUCGCAGCCCCUGCCAGAUCCUGGUGAAUCUGCGAGUUCUGCUGUAUAACUC [A13U U26A U43C U49C A65G U78A], the self-cleavage was 0.13.

For the variant UAACAGGGGGCCUCAGCAGAAGCGUACACGCCGCAGCCCCUGUCAGAUUCUGGGGAAUCCGCGAAUCCAGCUGUAUAUCUC [A13U U26A U31C U54G U60C U67C U69A], the self-cleavage is 0.15.

UAACAGGGGGCCUCAGCAGAAGCGUCCACGUUGCAGCCCCUGUCAGAUUCUGGUGAAUCUGCGAAUUCUGCUGUAUAUCUC [A13U U26C C32U]: the self-cleavage stood at 0.14.

Consider UAACAGGGGGCCUCAGCAGAAGCGUACACGUCGCAGCCCCUGUCGGAUUCUGGUGAAUCUGCGAAUUCUGCUGUAUAUCUC [A13U U26A A45G], for which the self-cleavage was 0.96.

For the variant UAACAGGGGGCCUCAGCAGAAGCGUUCACGACGCAGCCCCUGUCAGAUUCUGGUGAAUCUGCGUAUUCUGCUGCGUAUCUC [A13U U31A A64U U74C A75G], the self-cleavage amounted to 0.11.

UAACAGGGGGCCUCAGCAGAAGCGCUCACGUCGCAGCCCCUGUCAGAUUCUGGUGAAUCAGCGAAUUCUGCUGCAUACCUC [A13U U25C U60A U74C U78C]: the self-cleavage was 0.28.

Consider UAACAGGGGGCCUCAGCAGAAGCGUUCACGACGCAGCCCCUGGCAGAUUCUGGUGAACCUGCGAAUUCUGCUGUAUAUCUC [A13U U31A U43G U58C], for which the self-cleavage came out at 0.17.

Take UAACAGGGGGCCUCAGCAGAAGCGUACACGUCGCAGCCCCUGUCAGAUUCUGGUGAAUCUGCGAAUUCUGCUGUACAUCUC [A13U U26A U76C]: the self-cleavage came to 1.17.

Consider UAACAGGGGGCCUCAGCAGAAGCGUUCACGACGCGACCCCUGUCAGAUUCUGGUGAAUCUGCGAAUUCUGCUGUAUACCUC [A13U U31A A35G G36A U78C], for which the self-cleavage stood at 0.28.
